Structures are written as SMILES. Screen size: about 310,000 compounds; about 2,200 (0.71%) showed an effect of 50% or more. Effects have a minus sign here. The list shows a part of the results.

Consider 57 molecules from publication PMC4336329 (PLoS ONE, 2015).

human ether-à-go-go-related gene (hERG) potassium channel, sequence (Q12809 whole entry, looked up): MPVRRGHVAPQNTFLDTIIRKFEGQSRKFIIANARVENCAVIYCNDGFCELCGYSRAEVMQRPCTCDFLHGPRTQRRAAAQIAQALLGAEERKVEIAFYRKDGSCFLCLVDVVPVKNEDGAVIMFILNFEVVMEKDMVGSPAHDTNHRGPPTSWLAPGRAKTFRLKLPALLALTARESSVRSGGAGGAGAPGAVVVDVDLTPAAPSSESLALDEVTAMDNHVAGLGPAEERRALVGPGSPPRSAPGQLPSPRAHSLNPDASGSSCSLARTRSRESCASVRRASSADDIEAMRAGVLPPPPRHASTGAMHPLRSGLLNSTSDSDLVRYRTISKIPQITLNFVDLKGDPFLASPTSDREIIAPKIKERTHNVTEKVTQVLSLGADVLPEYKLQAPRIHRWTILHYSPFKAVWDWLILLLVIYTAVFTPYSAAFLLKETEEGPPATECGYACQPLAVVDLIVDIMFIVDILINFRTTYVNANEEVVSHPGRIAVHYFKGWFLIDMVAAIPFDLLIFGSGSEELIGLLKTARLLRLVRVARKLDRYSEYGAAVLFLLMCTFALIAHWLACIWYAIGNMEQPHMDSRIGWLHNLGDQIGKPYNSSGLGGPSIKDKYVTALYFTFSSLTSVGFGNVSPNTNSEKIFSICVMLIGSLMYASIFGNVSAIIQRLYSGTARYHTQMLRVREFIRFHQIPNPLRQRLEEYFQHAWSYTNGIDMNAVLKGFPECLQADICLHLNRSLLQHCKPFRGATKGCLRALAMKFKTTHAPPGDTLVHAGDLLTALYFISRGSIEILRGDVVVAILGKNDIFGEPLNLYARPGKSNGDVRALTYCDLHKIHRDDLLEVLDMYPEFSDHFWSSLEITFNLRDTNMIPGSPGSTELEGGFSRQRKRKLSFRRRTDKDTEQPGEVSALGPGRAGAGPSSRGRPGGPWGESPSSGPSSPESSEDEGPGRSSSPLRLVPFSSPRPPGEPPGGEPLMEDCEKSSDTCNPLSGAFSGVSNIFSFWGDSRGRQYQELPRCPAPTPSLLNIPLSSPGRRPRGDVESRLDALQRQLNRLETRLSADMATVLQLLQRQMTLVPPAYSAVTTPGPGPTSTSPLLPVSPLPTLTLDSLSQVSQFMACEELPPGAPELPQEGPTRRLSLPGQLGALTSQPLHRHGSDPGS

This assay has as its target human ether-à-go-go-related gene (hERG) potassium channel (human, UniProt Q12809). In words: primary screen, population patch clamp on CHO cells stably expressing hERG.
Turning to `Cc1c(C(=O)O)oc2c1/C(=N\O)CC(C)(C)C2`, the “hERG current change (%, negative = inhibition) at 1uM” value amounted to 2.91%. For the molecule `COc1ccc(S(=O)(=O)N2c3ccccc3OCC2C(C)(C)C)cc1` (stereo not drawn), the “hERG current change (%, negative = inhibition) at 1uM” value is 15.8%. Under `O=C(C1CC1)N1N=C(C2CCCCC2)CC1(O)C(F)(F)F` (stereo not drawn) stands 1.15%; under `CCn1c(SCC(=O)Nc2ccccc2)nc2c1c(=O)n(C)c(=O)n2C`, 12.2%. Take `C/C(=N\NC(=O)NC1CCCCC1)c1ccc(OC(F)F)cc1OC(F)F`: the “hERG current change (%, negative = inhibition) at 1uM” value was found to be 1.93%. As to `CCN1CCN(C(=O)c2sc3nc(C)nc(N4CCC(C)CC4)c3c2C)CC1`, the “hERG current change (%, negative = inhibition) at 1uM” value was 2.48%. On to `COc1ccccc1NC(=O)Cc1csc(NC(=S)Nc2ccc(C)cc2)n1`, for which the “hERG current change (%, negative = inhibition) at 1uM” value worked out at 5.08%. On to `COC(=O)C(=Nc1ccccc1)/C(C(=O)C(=O)N(C)c1ccccc1)=C(\O)c1ccc(Cl)cc1`, for which the “hERG current change (%, negative = inhibition) at 1uM” value was 8.72%. As for `COc1ccc(C(C)(C)C)cc1NC(=O)CCCn1c(=O)oc2ccccc21`, the “hERG current change (%, negative = inhibition) at 1uM” value is reported as 5.41%.

As for `CCc1nn2cc(C(=O)c3cc(Cl)ccc3O)cnc2c1-c1ccc(F)cc1`, the “hERG current change (%, negative = inhibition) at 1uM” value is reported as 9.88%. With `COc1ccc2nc(C)cc(SCC(=O)NNC(=O)COc3cccc4ccccc34)c2c1`, the “hERG current change (%, negative = inhibition) at 1uM” value was found to be 13%. With `O=c1nc(N/N=C/C=C/c2ccccc2)cn[nH]1`, the “hERG current change (%, negative = inhibition) at 1uM” value is 9.87%. As for `COc1ccc(/C=C2\SC(=O)N=C2N)cc1`, the “hERG current change (%, negative = inhibition) at 1uM” value was 11.7%. On to `CCc1cccc(C)c1NC(=O)C1CCN(C(=O)c2ccc([N+](=O)[O-])cc2)CC1`, for which the “hERG current change (%, negative = inhibition) at 1uM” value was -8.45%. Under `Cc1ccc[n+](CC(=O)N2CCCCC2)c1C.[Br-]` stands 11.1%; under `O=C(c1c(Cl)cccc1Cl)N1CCN(c2cccc3[nH]ccc23)CC1`, 11.2%.

`COc1ccc(CNS(=O)(=O)c2ccc(NC(=O)N3CCCCC3)cc2)cc1`: the “hERG current change (%, negative = inhibition) at 1uM” value stood at 3.41%. In the case of `O=C(NCC(c1ccco1)N1CCN(c2ccccc2F)CC1)C1CCCCC1` (stereo not drawn), the “hERG current change (%, negative = inhibition) at 1uM” value was found to be 16.1%. In the case of `Cc1sc2ncnc(SCC(=O)N3CCN(C(=O)c4ccco4)CC3)c2c1C`, the “hERG current change (%, negative = inhibition) at 1uM” value is reported as -67.3%. Regarding `Cc1nc(-c2ccncc2)nc(NCCNc2ccc(C(F)(F)F)cn2)c1Cl`, the “hERG current change (%, negative = inhibition) at 1uM” value came to 5.61%. For `COc1cccc(CNC(=O)Cn2cc3c(n2)CCCC3)c1`, the “hERG current change (%, negative = inhibition) at 1uM” value turned out to be 8.27%.

As to `O/N=C/c1ccc(OCc2ccccc2F)c(Cl)c1`, the “hERG current change (%, negative = inhibition) at 1uM” value worked out at 1.1%. The same measure for `O=C(c1cccc(N2C(=O)C3C4C=CC(C4)C3C2=O)c1)N1CCN(c2ccccc2F)CC1` (stereo not drawn): 11.7%. The same measure for `Cc1ccc(OCC(=O)OCC(=O)Nc2sccc2C(N)=O)cc1C`: 16.3%; for `O=C(COC(=O)Cc1ccccc1[N+](=O)[O-])NCC1CCCCC1`: 3.86%; for `COP(=O)(CC(=O)c1ccccc1)CC(=O)c1ccccc1`: 8.51%. For the molecule `CCN(CC)C(=O)C1CCCN(Cc2nc(-c3cnccn3)no2)C1` (stereo not drawn), the “hERG current change (%, negative = inhibition) at 1uM” value was -1.4%. As to `Cc1ccc(OCC(=O)Nc2ccc(F)cc2)cc1`, the “hERG current change (%, negative = inhibition) at 1uM” value was 16.9%. As for `CCn1cc(S(=O)(=O)CC(=O)Nc2cccc(C)c2)c2ccccc21`, the “hERG current change (%, negative = inhibition) at 1uM” value was 13%. On to `COc1cccc(C(=O)Nc2ccc(S(=O)(=O)Nc3nccc(C)n3)cc2)c1`, for which the “hERG current change (%, negative = inhibition) at 1uM” value is 17.4%. For the molecule `COc1cccc(/C=N\NC(=O)c2ccc(C)nc2)c1`, the “hERG current change (%, negative = inhibition) at 1uM” value came to 13.3%. For the molecule `C/C(=N\NS(C)(=O)=O)c1ccccc1`, the “hERG current change (%, negative = inhibition) at 1uM” value is given as 11.3%. Take `COc1cc(C(=O)N2CCC(O)(c3ccccc3)CC2)cc(OC)c1OC`: the “hERG current change (%, negative = inhibition) at 1uM” value was found to be 9.08%. Take `COC(=O)C(NS(=O)(=O)c1ccc(NC(C)=O)cc1)C(C)C` (stereo not drawn): the “hERG current change (%, negative = inhibition) at 1uM” value is given as 3.26%. The same measure for `COCCNC(=O)CNC(=S)N(CCCN1CCOCC1)Cc1cccs1`: 6.05%; for `CCOC(=O)c1c2ccc(OCC(=O)NN)cc2n2ccccc12`: 13.3%; for `O=C(COC(=O)CCCN1C(=O)c2ccccc2C1=O)Nc1ncc(Cl)cc1Cl`: 6.88%. Regarding `O=S(=O)(Nc1ccc(-c2nc3cccnc3s2)cc1)c1ccccc1F`, the “hERG current change (%, negative = inhibition) at 1uM” value is 12.3%. For the molecule `CCn1c(=O)cc(O)c2ccccc21`, the “hERG current change (%, negative = inhibition) at 1uM” value was 5.93%. Under `Cc1ccc(NC(=O)CSc2nnc(CCC(=O)O)c(=O)[nH]2)cc1` stands 12.6%; under `CCc1ccc(Nc2nnc(SCn3nnc4ccccc4c3=O)s2)cc1`, -9.72%.

For `COC(=O)c1ccc(CNC(=O)Cn2cnnn2)cc1`, the “hERG current change (%, negative = inhibition) at 1uM” value was 9.54%. Consider `CCCOc1cccc(C2C(C(=O)c3cccs3)=C(O)C(=O)N2CCN2CCOCC2)c1` (stereo not drawn), for which the “hERG current change (%, negative = inhibition) at 1uM” value was found to be 15%. The same measure for `Cc1cc(/C=C2\SC(=S)NC2=O)cc(C)c1O`: 14.7%; for `CC(C)C[C@H]1CN=C(N(C)C)N1CC1CCCCCC1`: 3.22%. `O=C(CCCl)N(Cc1nc2ccccc2c(=O)[nH]1)Cc1cccs1`: the “hERG current change (%, negative = inhibition) at 1uM” value is recorded as 7.98%. As for `CC(C)NC(=O)c1ccc(NC(=O)CC2SC(N3CCCCC3)=NC2=O)cc1` (stereo not drawn), the “hERG current change (%, negative = inhibition) at 1uM” value was 5.6%.

On to `CCOc1ccccc1NC(=O)CSc1nc2ccccc2nc1N1CCCC1`, for which the “hERG current change (%, negative = inhibition) at 1uM” value was found to be 11.8%. With `O=C(Cc1ccccc1)Nc1ccccc1Oc1ccccc1`, the “hERG current change (%, negative = inhibition) at 1uM” value is on record as 8.82%. Regarding `CCOc1ccc2nc(NCCNC(=O)Nc3cccc(C)c3)c(C#N)cc2c1`, the “hERG current change (%, negative = inhibition) at 1uM” value is recorded as -0.464%. Under `O=C(O)c1cc(NC(=S)NC(=O)C(c2ccccc2)c2ccccc2)ccc1Cl` stands 12.5%; under `CCOC(=O)C1[C@H]2C(=O)N(C(C)c3ccc(OC)cc3)C[C@]23C=C[C@H]1O3` (stereo partly drawn), 1.08%; under `N#Cc1c(-c2cccnc2)cc(-c2ccccc2)nc1N`, 10.1%.

On to `O=C(COC(=O)c1ccncc1)Nc1cc(S(=O)(=O)N2CCOCC2)ccc1Cl`, for which the “hERG current change (%, negative = inhibition) at 1uM” value was 7.02%. Regarding `COc1ccc(N(C(=O)c2ccncc2)S(=O)(=O)c2ccc(Cl)cc2)cc1`, the “hERG current change (%, negative = inhibition) at 1uM” value is -3.03%. `CNC(=S)NNC(=O)c1cn(C)nc1C`: the “hERG current change (%, negative = inhibition) at 1uM” value is reported as 14.6%. As to `COc1ccc(N(CCCN2C(=O)c3cccc4cccc(c34)C2=O)C(=O)c2cccc(OC)c2)cc1`, the “hERG current change (%, negative = inhibition) at 1uM” value is 17.8%.
